Laboratory results reported in PubChem BioAssay AID662 (National Center for Advancing Translational Sciences (NCATS), 2007).
The campaign covered roughly 71,000 compounds. About 1,800 (2.5%) were called active. Inconclusive results, whose numbers are uncertain, are shown with a selection of clear calls. Calls follow the shape of the dose curve; as a rule, active = well fitted activation curve with a large enough effect in the signal ratio, with a control signal flat (not every such curve was filed as active); inconclusive = small, poorly fitted or top-dose-only effect, or effect the other way, or a change in a side signal; inactive = flat fitted curve, though single readings scatter; the % refers to the signal ratio. A potency beside an inconclusive call is a rough fit, not a confirmed value.
Potency is read from the fitted curve at half-maximal effect; tags tell the direction and shape of the fitted curve.

Test: Cell signaling CRE-BLA (Fsk stim); as to activity change, negative = inhibition: % of control where 0% means no effect
Conditions: CHO CRE-bla reporter (cAMP response element driving beta-lactamase), forskolin EC10, beta-lactamase ratio; activity change, negative = inhibition: at 38.2 µM (top of the series) unless noted
Summary of the method: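 qHTS titration format; CRE-bla CHO reporter; stimulus EC10 NKH 477, a water-soluble forskolin. Read: CCF4 460/530 nm ratio. Potency expressed as AC50 for activators or inhibitors.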
In the case of Cc1nc(NCc2ccccc2)c2nc(-c3ccccc3)n(CCCN3CCOCC3)c2n1, the Potency is reported as inconclusive: 10 µM [rising, single point]. With Cc1noc(C)c1C(=O)N1CCC2(CCCN(C(=O)Nc3ccccc3)C2)CC1 the activity change, negative = inhibition was “inactive”. In the case of Cc1c(C(=O)N2CCCCC2)oc2ccc(S(=O)(=O)N3CC(C)CC(C)C3)cc12 (configuration not stated), the activity change, negative = inhibition is reported as “inactive”. In the case of COc1cc2c(cc1NC(=O)CCCN1C(=O)CCC1=O)oc1ccccc12, the activity change, negative = inhibition is reported as “inactive”. For CCCn1c(=O)c2ccccc2n2c(SCC(=O)c3cc(C)n(CCOC)c3C)nnc12, the Potency was inconclusive: 6.31 µM [rising, partial curve]. With CCc1cc2c(SCC(=O)c3cccs3)ncnc2s1 the activity change, negative = inhibition was “inactive”. For CCOC(=O)c1sc(=S)n(-c2cc(F)ccc2F)c1N, the Potency was inconclusive: 12.6 µM [rising, partial curve]. In the case of Cn1ncc(Cl)c1C(=O)N1CCc2ccccc21, the activity change, negative = inhibition is reported as “inactive”. For N=c1c(S(=O)(=O)c2ccccc2)cc2c(=O)n3ccccc3nc2n1CC1CCCO1 (configuration not stated), the Potency was inconclusive: 5.01 µM [rising, partial curve]. With C=CCn1c(Cc2ccc(OC)cc2)nnc1SCc1nc2ccccc2c(=O)[nH]1 the Potency was inconclusive: 20 µM [rising, single point]. For COc1ccc(-c2nc(C#N)c(NC(C)c3ccccc3)o2)cc1OC (configuration not stated), the Potency was inconclusive: 5.01 µM [rising, partial curve]. For O=S(=O)(NCc1ccc2c(c1)OCO2)c1cccc2nsnc12, the activity change, negative = inhibition was inconclusive: -16.7%. In the case of COc1ccc(Cl)cc1N(CC(=O)Nc1ccccc1SC)S(C)(=O)=O, the activity change, negative = inhibition is reported as “inactive”. With COc1ccc(CCNC(=O)Cn2cnc3c(nnn3Cc3ccc(C)cc3)c2=O)cc1OC the activity change, negative = inhibition was inconclusive: 23.3%. With O=C(O)COc1cccc2nsnc12 the activity change, negative = inhibition was “inactive”. For Cc1noc(C)c1COC(=O)C1CC(O)CN1S(=O)(=O)c1ccc(Cl)cc1 (configuration not stated), the Potency was inconclusive: 0.0398 µM [falling, full curve, poor fit]. For CSc1nnc(-c2ccc(S(=O)(=O)N3CCCC3)cc2)n1C, the activity change, negative = inhibition was “inactive”. In the case of COc1ccc(CCC(C(O)C(F)(F)F)S(=O)c2ccccc2)cc1 (configuration not stated), the activity change, negative = inhibition is reported as “inactive”. For Cc1ccc(CCNC(=O)c2nnn(-c3cccc(C)c3)c2N)cc1, the activity change, negative = inhibition was inconclusive: -21.1%. In the case of Nc1nnc(N2CCc3ccccc32)s1, the activity change, negative = inhibition is reported as “inactive”. In the case of COc1ccc2[nH]cc(CCNc3cc(-c4c(C)noc4C)ncn3)c2c1, the activity change, negative = inhibition is reported as inconclusive: 18.3%. For CCn1c(CNC(=O)Cc2ccc(OC)cc2)nnc1SCC(=O)Nc1nccs1, the activity change, negative = inhibition was inconclusive: -7.25%. With CN1c2ccccc2C(C)(C)C12C=Cc1cc(O)ccc1O2 (configuration not stated) the activity change, negative = inhibition was inconclusive: -21.1% [cytotoxic]. For CC[N+](CC)(CC)CC(=O)Nc1c(C)cccc1C, the activity change, negative = inhibition was inconclusive: -10.3%. For CCc1c(C)nc2[nH]nc(-c3ccccc3C)n2c1=O, the activity change, negative = inhibition was “inactive”. For C=C(C)Cn1c(SCC(=O)NCc2ccco2)nc2sc3c(c2c1=O)CCC3, the activity change, negative = inhibition was “inactive”. For CSc1nnc(Cn2c(=O)sc3ccccc32)n1CCc1ccccc1, the activity change, negative = inhibition was inconclusive: 6.18%. For CCOc1cc(C(=O)Nc2ccccc2N2CCN(S(C)(=O)=O)CC2)cc(OCC)c1OCC, the Potency was inconclusive: 5.01 µM [rising, partial curve]. With COCCn1c(C)cc(C(=O)CSc2ncn[nH]2)c1C the activity change, negative = inhibition was inconclusive: -12.8%. For COc1ccc(OC)c(S(=O)(=O)N(C)CC(=O)O)c1, the activity change, negative = inhibition was inconclusive: -2.39%. For COc1ccc(OC)c2[nH]c(=O)c(CCNC(=O)COc3ccccc3)cc12, the Potency was inconclusive: 10 µM [rising, partial curve]. For Cc1ccc(-c2nnc(-c3ccc4ccccc4c3)o2)cc1, the activity change, negative = inhibition was inactive: 11.4% [at 7.6 µM]. With CN(C)c1ccc(N/C=C/C(=O)c2ccc(F)cc2)cc1 the activity change, negative = inhibition was “inactive”. In the case of CCN(CC)S(=O)(=O)c1cc(-c2nnc(-c3ccc(Br)cc3)o2)ccc1Cl, the activity change, negative = inhibition is reported as inconclusive: 24.4%. In the case of COCc1nnc(NS(=O)(=O)c2ccc(C)cc2)s1, the activity change, negative = inhibition is reported as inconclusive: 18.2%. With Cc1cc(=O)oc2cc(OCc3nnc(-c4ccccc4Br)o3)ccc12 the Potency was inconclusive: 12.6 µM [rising, single point]. With CCCCN1c2ccccc2N(CCCO)c2cc(C)nnc21 the Potency was inconclusive: 6.31 µM [rising, partial curve]. For O=C(Nc1cc(C(=O)Nc2ccc(S(=O)(=O)O)cc2S(=O)(=O)O)cc(C(=O)Nc2ccc(S(=O)(=O)O)cc2S(=O)(=O)O)c1)Nc1cc(C(=O)Nc2ccc(S(=O)(=O)O)cc2S(=O)(=O)O)cc(C(=O)Nc2ccc(S(=O)(=O)O)cc2S(=O)(=O)O)c1, the activity change, negative = inhibition was “inactive”. For COC(=O)[C@@]1(Cc2ccc(OC)cc2)[C@H]2c3cc(C(=O)N(C)C)n(CCc4ccc(OC)c(Br)c4)c3C[C@H]2CN1C(=O)c1ccccc1, the activity change, negative = inhibition was inconclusive: -1.66%. For CCC(C(=O)OC)n1cnc2c(cnn2-c2ccc(Cl)cc2)c1=O (configuration not stated), the activity change, negative = inhibition was inconclusive: 29%. For COc1cccc(-c2nc(NC3CCNCC3)c3ccccc3n2)c1, the activity change, negative = inhibition was inconclusive: 28.4%. With O=C(O)C1CCN(c2nc(-c3ccccc3)nc3c2oc2ccccc23)CC1 the Potency was inconclusive: 2.51 µM [rising, single point]. For N#Cc1c(-c2ccco2)nc(SCc2ccc(F)cc2)[nH]c1=O, the Potency was inconclusive: 6.31 µM [rising, partial curve]. For Cc1ccc(-c2nnc(SCC(=O)N3CC(C)CC(C)C3)o2)cc1C (configuration not stated), the activity change, negative = inhibition was “inactive”. For Nc1nc(-c2cccnc2)nc(N2CCCCC2)n1, the Potency was inconclusive: 12.6 µM [rising, single point]. For CCc1nnc(NC(=O)C2CCCN2S(=O)(=O)c2ccc(F)cc2)s1 (configuration not stated), the activity change, negative = inhibition was “inactive”. For Cc1cc(C)nc(NS(=O)(=O)c2cccs2)c1, the activity change, negative = inhibition was “inactive”. In the case of CC(C)(CNC(=O)c1cccs1)CNC(=O)c1cccs1, the activity change, negative = inhibition is reported as “inactive”. In the case of Cc1cc(S(=O)(=O)N2CCN(Cc3ccc4c(c3)OCO4)CC2)cc(C)c1N1CCCC1=O, the activity change, negative = inhibition is reported as inconclusive: -25.3%. In the case of CNC(=O)[C@H]1O[C@H](n2cnc3c(NCc4cccc(I)c4)nc(Cl)nc32)[C@@H](O)[C@@H]1O, the activity change, negative = inhibition is reported as inconclusive: 27%. With CCCc1ccc(Oc2cn[nH]c2-c2ccc(O)c(C)c2O)cc1 the activity change, negative = inhibition was inconclusive: 13.5%. For O=C1C(C=Nc2ccccc2O)=C(O)c2ccccc21, the activity change, negative = inhibition was inconclusive: -11.8%. For CSCC[C@H](NC(=O)OC(C)(C)C)c1nnc(SCC(N)=O)o1, the activity change, negative = inhibition was “inactive”. In the case of Cc1sc2nc(CN(Cc3cccs3)C(=O)C3CC3)[nH]c(=O)c2c1C, the activity change, negative = inhibition is reported as inconclusive: 26.7%. For Cc1ccc(C(=O)N2CCN(C(=O)c3ccc(C)c(C)c3)C(C)C2)cc1C (configuration not stated), the activity change, negative = inhibition was inconclusive: -2.11%. In the case of CCOC(=O)c1cc(NC(=O)NCc2ccco2)c(C)nc1C, the activity change, negative = inhibition is reported as inconclusive: -3.93%. With CCOC(=O)Cn1ncc2c(=O)oc3ccccc3c21 the activity change, negative = inhibition was inconclusive: 2.89%. With COc1cc(OC)c(C2CC(=O)N3CN(C)CSC3=C2C#N)cc1OC (configuration not stated) the activity change, negative = inhibition was “inactive”. For CCN(CC)CCCn1c(-c2ccccc2)nc2c(N3CCOCC3)nc(C)nc21, the activity change, negative = inhibition was “inactive”. In the case of CCOC(=O)Nc1ccc2c(c1)N(C(=O)N(CC)CC)c1ccccc1CC2, the activity change, negative = inhibition is reported as inconclusive: 1.83% [at 7.6 µM]. For CN1C(=O)C2(NCCc3c2[nH]c2ccccc32)c2ccccc21 (configuration not stated), the activity change, negative = inhibition was inconclusive: 2.59%. For COc1cc2[nH]c(=O)n3nc(-c4ccccc4)nc3c2cc1OC, the activity change, negative = inhibition was inconclusive: 21.4%. With COc1ccccc1CN1CCC2(CC1)CCN(S(=O)(=O)c1ccccc1)CC2 the activity change, negative = inhibition was “inactive”. For Cn1c(=O)n(C)c2cc(S(=O)(=O)NCc3ccccc3)ccc21, the activity change, negative = inhibition was inconclusive: 22.3%. For CC(C)c1ccc(Cn2ccc3c4c(N)nc(NC5CC5)nc4ccc32)cc1, the Potency was active: 12.6 µM. For Cc1ccc(Cn2ccc(NC(=O)c3cc(-c4ccc(Br)cc4)on3)n2)cc1, the activity change, negative = inhibition was inconclusive: -19.8%. In the case of Cc1nc2sc(C(c3cccs3)N3CCN(Cc4ccccc4)CC3)c(O)n2n1 (configuration not stated), the activity change, negative = inhibition is reported as “inactive”. With O=C(Nc1ccccc1N1CCCCC1)c1cccs1 the Potency was inconclusive: 12.6 µM [rising, single point]. For O=c1c(-c2cccc(Cl)c2)nc2cncnc2n1Cc1ccc(F)cc1, the Potency was inconclusive: 10 µM [rising, partial curve]. With CCOc1cc(C2C(C#N)=C(N)Oc3n[nH]c(-c4ccccc4)c32)ccc1O (configuration not stated) the Potency was inconclusive: 3.98 µM [rising, single point]. In the case of COCc1cc(C)nc(Nc2ccc(C)c(C)c2)c1C#N, the activity change, negative = inhibition is reported as inconclusive: 5.75%. With COc1ncc2nc(-c3ccccc3)c(=O)n(CCC#N)c2n1 the Potency was inconclusive: 25.1 µM [rising, single point]. For CCCn1c(-c2ccc(F)cc2)nc2c(NCCN3CCCCC3)nc(C)nc21, the activity change, negative = inhibition was “inactive”. For C=CCn1c(=O)c2ccccc2n2c(SCC(=O)Nc3cc(C)on3)nnc12, the Potency was inconclusive: 25.1 µM [rising, single point]. For CCn1c(SCC(=O)NCc2ccc3c(c2)OCO3)nnc1-c1c[nH]c2ccccc12, the activity change, negative = inhibition was “inactive”. For CN(C)CCCOC(=O)CCc1ccccc1, the activity change, negative = inhibition was “inactive”. With CC1CN(S(=O)(=O)c2cccc(-c3cn4cccnc4n3)c2)CC(C)O1 (configuration not stated) the activity change, negative = inhibition was “inactive”. With Cc1cccc(C2c3c(n(C)c(=O)n(C)c3=O)N=C3c4ccccc4C(=O)C32)c1 (configuration not stated) the Potency was inconclusive: 12.6 µM [rising, single point]. With CCC/C=C(\CCC)C(NC(=O)c1ccc(C(=O)OC)cc1)c1ccc(C(=O)OC)cc1 (configuration not stated) the activity change, negative = inhibition was “inactive”. For CCCC/C=C/C(NC(=O)c1ccccc1)c1ccccc1 (configuration not stated), the activity change, negative = inhibition was “inactive”. With Cc1noc(NS(=O)(=O)c2ccc(N3CC(O)=C(c4ccccc4)C3=N)cc2)c1C the Potency was inconclusive: 3.98 µM [falling, single point]. With COc1ccc2c(c1)sc1nc(-c3ccccc3)cn12 the Potency was inconclusive: 12.6 µM [rising, partial curve].
